Experimental data from a collection of fitness landscapes (doi:10.1016/j.celrep.2020.107928).
The full ranking holds about 81,000 sequences; the median of “one-hybrid fitness for binding parS DNA” is about -0.17, and the highest 2% start at about 0.51. The list shows a part of the results.

B1: Caulobacter ParB omega fusion; a variant is named by its letters at X, in order, B8GW30 (parent)
chain: MESVVVGEPGMSEGRRGLGRGLSALLGEVDAAPAQAPGEQLGGSREAPIEILQRNPDQPRRTFREEDLEDLSNSIREKGVLQPILVRPSPDTAGEYQIVAGERAWRAAQRAGLKTVPIMVRELDDLAVLEIGIIENVQRADLNVLEEALSYKVLMEKFERTQENIAQTIGKSXSHVANXMRLLXLPDEVQSYLVSGELTAXHARAIAAAADPVALAKQIIEGGLSVRETEALARKAPNLSAGKSKGGRPPRVKDTDTQALESDLSSVLGLDVSIDHRGSTGTLTITYATLEQLDDLCNRLTRGI

Variants of: B1
Experiment: one-hybrid fitness for binding parS DNA (scaled: cognate 1, non-cognate 0); higher = stronger binding
Conditions: with parS DNA site
Summary of the method: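 In E. coli USO, a HIS3 reporter with its site placed 19 bp from the promoter was used to select Caulobacter ParB variants randomised at four specificity codons. Growth lasted 48 hours at 37°C on histidine-free M9 containing 0.1 mM IPTG and 5 mM 3-AT. Fitness was taken as the log change in variant-to-wild-type read ratio from Illumina sequencing of pre- and post-selection plasmids, rescaled between the non-cognate and cognate sites.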

one-hybrid fitness for binding parS DNA, ≤ 0.2:
LKKR
PPLN
GLSY
RKHE
VYNT
CPFV
MVEV
TCYM
LAQE
NCRM
QMCV
EYTR
TMFD
LCWS
KHDR
VVVC
SSKW
EGHF
HMRY
KAHT
QSAP
TPYF
HTPP
WLER
QSAD
PGDG
DLPM
RLCP
WAMT
KMDT
AHSD
MELS
THLV
WSLV
DVND
QCWA
KSCR
RFCV
SYKR
SNHC
ASHY
NTFS
NRGM
QANS
YLTI
QCPQ
KRVC
IFQG
LGTE
MRAF
GDVA
TGER
DLAT
PNMW
KVPS
CMRD
TPEA
AKWS
QRGG
KFMC
CMNV
YSDS
LHTK
YGKL
ICLR
RPDP
WSAQ
WAIS
QAMC
VLFG
TATK
LPMT
SCGT
MFRW
PEDG
SSFG
QSGP
IRAL
LYPF
GHRH
QNCE
SPGE
PNRF
PVNR
FGVL
GEQS
QLGW
PAQF
DFND
KPTG
MITS
YSVY
LPIG
QLPQ
MFWL
ILAT
SLIA
HDCS
